In all, about 220,000 compounds went through this assay and about 16,000 (7.3%) were called active. Inconclusive results, whose numbers are uncertain, are shown with a selection of clear calls. Calls come from the whole dose curve; as a rule, active = well fitted inhibition curve with a large enough effect (not every such curve was filed as active); inconclusive = small, poorly fitted or top-dose-only effect, or another doubt; inactive = no such curve, though single readings can be large or run the other way. No potency is given beside an inconclusive call; the fits are too rough.
These molecules were tested against Aldehyde dehydrogenase 1A1 (Homo sapiens) (UniProt P00352) (assay: qHTS Assay for Inhibitors of Aldehyde Dehydrogenase 1 (ALDH1A1)). Settings: Purified ALDH1A1, NADH fluorescence, propionaldehyde substrate; series mostly up to 75.3 µM.
Potency is the fitted concentration of half-maximal effect; tags give direction and shape of the fitted curve.

Sequence of UniProt P00352 (P00352 whole entry, looked up): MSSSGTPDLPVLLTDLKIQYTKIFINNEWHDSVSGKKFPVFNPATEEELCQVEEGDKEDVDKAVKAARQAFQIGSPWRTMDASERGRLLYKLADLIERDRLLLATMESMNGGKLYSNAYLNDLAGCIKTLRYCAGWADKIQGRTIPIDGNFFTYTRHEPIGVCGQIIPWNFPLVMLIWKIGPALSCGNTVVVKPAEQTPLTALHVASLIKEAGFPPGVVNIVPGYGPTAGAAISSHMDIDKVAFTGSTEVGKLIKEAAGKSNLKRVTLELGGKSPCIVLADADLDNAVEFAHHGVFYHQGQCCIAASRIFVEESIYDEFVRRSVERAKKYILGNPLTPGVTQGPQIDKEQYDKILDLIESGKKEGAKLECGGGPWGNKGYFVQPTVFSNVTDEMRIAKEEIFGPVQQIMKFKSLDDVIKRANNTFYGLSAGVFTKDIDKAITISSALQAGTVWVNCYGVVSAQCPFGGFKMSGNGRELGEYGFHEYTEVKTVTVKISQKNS

| Structure (SMILES) | Potency |
| --- | --- |
| O=C(CSc1ncnc2sc3c(c12)CCCC3)c1ccccc1 | inconclusive [inhibitor, single point] |
| CCOC(=O)C1CCCN(C(=S)Nc2ccc(OC)cc2)C1 (stereo unspecified) | inactive |
| COc1ccc(CN(Cc2cc3cc4c(cc3[nH]c2=O)OCO4)C(=O)NC2CCCCC2)cc1 | inconclusive [inhibitor, single point] |
| COc1ccc(C)cc1NC(=O)CSc1nnc(CC(=O)Nc2ccccc2F)n1C | inactive |
| Sc1oc(-c2ccccc2)cc1C=Nc1ccccc1 | inconclusive [inhibitor, partial curve] |
| O=C(NCc1ccco1)c1ccc2c(c1)C(=O)c1ccccc1-2 | active: 28.2 µM |
| COC(=O)c1ccc(C(=O)Nc2nnc(-c3cccnc3)o2)cc1 | inactive |
| O=C(O)Cc1ccc(N=Nc2c(O)c(C(=O)O)cc3ccccc23)cc1 | inconclusive [inhibitor, single point] |
| CC(C)Cn1c(-c2ccco2)nc2c(c(=O)c3ccccc3n2C)c1=O | inconclusive [inhibitor, partial curve] |
| CCOC(=O)N1CCN(c2c(N3CCc4ccccc4C3)c(=O)c2=O)CC1 | inconclusive [inhibitor, single point] |
| COc1ccc(S(=O)(=O)N2CCN(c3cc(-c4ccccc4)nc4ncnn34)CC2)cc1 | inconclusive [inhibitor, single point] |
| Cn1c2c(c(=O)n(C)c1=O)CN(CCN1CCNCC1)CN2 | inconclusive [inhibitor, single point] |
| Cc1nc(NCc2ccccc2)c2nc(-c3ccccc3)n(CCN3CCOCC3)c2n1 | inconclusive [inhibitor, partial curve] |
| CCN(CC)S(=O)(=O)c1ccc(Oc2ccccc2)c(N)c1 | inactive |
| CCOC(=O)Cc1[nH]nc2c1C(Cc1ccccc1)C(C#N)=C(N)O2 (stereo unspecified) | inactive |
| CC1=CC(c2ccc(Cl)cc2)n2nc(NC(=O)c3ccccc3)nc2N1 (stereo unspecified) | inconclusive [inhibitor, single point] |
| Cc1ccc(O)c(C(CCN(C(C)C)C(C)C)c2ccccc2)c1 (stereo unspecified) | inactive |
| S=C(NNc1cccc(Cl)c1)NC1CCCCC1 | active: 25.1 µM |
| Cc1cc(C)nc(N/N=C/c2cc(C)n(CC(F)(F)F)c2C)n1 | inactive |
| COc1ccc(C(=O)NC(=S)Nc2ccc(CN3CCCCC3)cc2)cc1Cl | inconclusive [inhibitor, single point] |
| CCOC(=O)c1c(NC(=O)Cc2cccs2)sc2c1CCCC2 | inactive |
| COc1cc(NC(=O)COC(=O)CNC(=O)c2cc(C)cc(C)c2)c(C)cc1[N+](=O)[O-] | inconclusive [inhibitor, single point] |
| O=C(COC(=O)c1cccc(Br)c1)Nc1cccc2c1C(=O)c1ccccc1C2=O | inconclusive [inhibitor, partial curve, poor fit] |
| CC(C)(C)c1nc2c(C#N)c(-c3ccc(Cl)cc3)ccn2n1 | inactive |
| O=c1oc(-c2cccs2)nc2scc(-c3cccs3)c12 | inconclusive [inhibitor, single point] |
| CCCC/C=C/C(NC(=O)c1ccco1)c1ccccc1 (stereo unspecified) | active: 3.55 µM |

| Structure (SMILES) | Potency |
| --- | --- |
| COC(=O)c1cc(S(=O)(=O)NC2CCN(Cc3ccccc3)CC2)cn1C | inconclusive [inhibitor, single point] |
| COc1ccc(Nc2oc(-c3ccc(Cl)cc3)nc2C#N)cc1 | inconclusive [inhibitor, single point] |
| CC1CCC(NCC(=O)Nc2cccc(S(N)(=O)=O)c2)CC1 (stereo unspecified) | inconclusive [inhibitor, single point] |
| COc1ccc(C2c3ccsc3CCN2C(=O)C(C)(C)C)cc1 (stereo unspecified) | inactive |
| Cc1ccccc1OCc1nc2ccccc2c(=O)n1/N=C/c1ccco1 | inconclusive [inhibitor, single point] |
| COc1ccc(/C=N/NC(=O)c2cccc(OC(F)(F)C(F)F)c2)cc1O | inactive |
| Brc1ccc(-c2noc(CCc3ccccc3)n2)o1 | inconclusive [inhibitor, single point] |
| COc1ccc(NC(=O)c2nc3ccccc3s2)cc1 | inconclusive [inhibitor, partial curve] |
| Cn1nc(-c2ccc(NCCO)c([N+](=O)[O-])c2)c2ccccc2c1=O | inconclusive [inhibitor, partial curve] |
| CC(C)c1cc(NCC2CCCO2)n2c(nc3ccccc32)c1C#N (stereo unspecified) | inconclusive [inhibitor, partial curve] |
| Cc1ccc(C)c(S(=O)(=O)N/N=C2/CCCc3ccccc32)c1 | inconclusive [inhibitor, single point] |
| Cc1cccc(N2CCN(c3ccc(NC(=O)/C=C(/C(=O)O)c4ccccc4)cc3)CC2)c1 | inconclusive [inhibitor, partial curve] |
| Cc1ccc(-c2cc(-c3ccccc3)c(C#N)c(Br)n2)cc1 | inactive |
| CN(C(=O)COC(=O)/C=C/c1ccc(S(=O)(=O)N2CCc3ccccc32)cc1)C1CCS(=O)(=O)C1 (stereo unspecified) | inconclusive [inhibitor, partial curve] |
| CSc1ccccc1NC(=O)CN(C)Cc1cc(=O)n2ccsc2n1 | inactive |
| CCOC(=O)c1c(C)[nH]c(C)c1C(=O)CSc1nc2ccccc2c(=O)n1-c1ccc(F)cc1 | inactive |
| Cc1cccc(NC(=S)NCCc2ccc(F)cc2)c1C | inactive |
| CCN(CCNC(=O)C1CCN(S(=O)(=O)c2cccc3cccnc23)CC1)c1ccccc1 | active: 39.8 µM |
| COc1ccccc1NS(=O)(=O)c1cccc(C(=O)N/N=C(\C)c2ccc(-n3ccnc3)cc2)c1 | inconclusive [inhibitor, single point] |
| CC(=O)NC(=S)NNC(=O)c1ccc(Br)cc1 | active: 11.2 µM |
| O=C(CSCc1c(F)cccc1Cl)NCc1ccco1 | inconclusive [inhibitor, single point] |
| CCN1CCN(c2cc(N3CCc4ccccc4C3)c(F)cc2[N+](=O)[O-])CC1 | inactive |
| N#Cc1cccc(-c2nc3cnc(N4CCOCC4)nc3n(C[C@H]3CCCO3)c2=O)c1 | inconclusive [inhibitor, partial curve] |
| O=C(CCn1c(=O)oc2ccccc21)n1c(=O)oc2ccccc21 | inconclusive [inhibitor, partial curve] |
| O=C1CSC(c2ccccc2[N+](=O)[O-])N1c1ccccc1 (stereo unspecified) | inactive |
| CCOC(=O)Cn1cc(C#N)c2cccc(CC)c21 | inactive |

| Structure (SMILES) | Potency |
| --- | --- |
| O=C(O)COCC(=O)Nc1ccc(-n2cnnn2)cc1 | inconclusive [inhibitor, single point] |
| Cc1ccc(C(=O)N/C(=C/c2ccco2)C(=O)OCN2C(=O)c3ccccc3C2=O)cc1 | inconclusive [inhibitor, single point] |
| COc1ccc(-n2cnnc2SCC(=O)c2ccc(S(=O)(=O)N3CCOCC3)cc2)cc1 | active: 1.41 µM |
| O=[N+]([O-])c1cc(/C=N/n2c(-c3cccnc3)n[nH]c2=S)ccc1Cl | active: 2 µM |
| COc1ccc(CCNC(=O)Cn2c(=O)n(-c3ccc(F)cc3)c(=O)c3sccc32)cc1OC | inactive |
| COc1ccc(N2CCN(C(=O)c3cccc(F)c3)CC2)c([N+](=O)[O-])c1 | inconclusive [inhibitor, partial curve, poor fit] |
| CC(C)COc1ccc(CNC(=S)NCc2ccccc2)cc1 | inactive |
| O=C(CCl)Nc1cccc(-c2cnc3ccccc3n2)c1 | active: 0.891 µM |
| COc1ccc(NS(=O)(=O)c2ccc(OC)c3ccccc23)cn1 | active: 7.08 µM |
| COCCNC(=O)CSc1nnc(-c2ccccc2)c(-c2ccccc2)n1 | active: 22.4 µM |
| O=C(CSc1cccc[n+]1[O-])NCC1CCCCC1 | inactive |
| CCn1c(COc2cccc(C)c2)nnc1SCC(=O)CC(=O)Nc1ccccc1OC | inactive |
| COC(=O)C(/C=N/OCc1ccc([N+](=O)[O-])cc1)NC(=O)c1ccccc1 (stereo unspecified) | inconclusive [inhibitor, single point] |
| O=C(c1cccn2c(=O)c3cc(Br)ccc3nc12)N1CCN(c2ccccn2)CC1 | inconclusive [inhibitor, partial curve] |
| CNC1=CN(O)C(c2ccccc2)=c2cc(Cl)ccc2=N1 | inactive |
| COc1ccc(-c2csc(Nc3ccc(C)cn3)n2)cc1 | active: 23.8 µM |
| CCCNC(=O)c1cccc(Cn2nc(C)c(Br)c2C)c1 | inactive |
| O=C(NCc1ccccn1)c1cn(-c2ccccc2)nc1-c1ccc(Cl)cc1 | inconclusive [inhibitor, single point] |
| CC(=O)c1cccc(NC(=O)COC(=O)COc2c(Cl)cc(Cl)c3ccc(C)nc23)c1 | inactive |
| Cc1cccc(Cn2c(C(C)(C)C)cc3cccnc32)c1 | inactive |
| Cc1cccc(C2=NN(c3ccccc3)[C@@H](C(=O)N3CCOC3=O)[C@@H]2c2ccc(Cl)cc2)c1 | inconclusive [inhibitor, partial curve] |
| O=C1CC(NCc2cccs2)C(=O)N1c1ccc(Cl)cc1 (stereo unspecified) | inconclusive [inhibitor, single point] |
| CSc1ccc(C(=O)/C=C/c2ccc(N)cc2)cc1 | inconclusive [inhibitor, single point] |
| Cc1cc(C)n(C)c(=O)c1C#N | inactive |

Reference: PubChem BioAssay AID1030 (National Center for Advancing Translational Sciences (NCATS), 2008)
